The values below come from paper PMC6549176.

Protein sequences, listed by entry. Tags and fused reporters are not part of them.
UniProt P39081: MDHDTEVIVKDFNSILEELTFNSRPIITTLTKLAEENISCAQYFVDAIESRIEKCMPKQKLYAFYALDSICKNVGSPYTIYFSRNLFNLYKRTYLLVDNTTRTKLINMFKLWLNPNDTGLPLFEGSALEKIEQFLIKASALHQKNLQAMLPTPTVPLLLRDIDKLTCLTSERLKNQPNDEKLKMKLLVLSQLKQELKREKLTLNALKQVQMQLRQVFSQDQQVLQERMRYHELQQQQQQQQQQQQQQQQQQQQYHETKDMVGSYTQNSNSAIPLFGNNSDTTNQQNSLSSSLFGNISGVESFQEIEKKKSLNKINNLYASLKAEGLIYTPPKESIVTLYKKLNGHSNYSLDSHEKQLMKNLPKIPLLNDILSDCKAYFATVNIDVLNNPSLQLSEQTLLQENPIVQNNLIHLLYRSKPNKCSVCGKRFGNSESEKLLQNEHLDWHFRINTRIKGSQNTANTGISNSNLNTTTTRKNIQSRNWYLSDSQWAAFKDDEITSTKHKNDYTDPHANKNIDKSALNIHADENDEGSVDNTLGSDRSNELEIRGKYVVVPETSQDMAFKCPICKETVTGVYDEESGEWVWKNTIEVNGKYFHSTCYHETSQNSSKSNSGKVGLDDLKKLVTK

In this assay the target is T1, GST-tagged Yra1p (S. cerevisiae) (UniProt Q12159).
T1 sequence: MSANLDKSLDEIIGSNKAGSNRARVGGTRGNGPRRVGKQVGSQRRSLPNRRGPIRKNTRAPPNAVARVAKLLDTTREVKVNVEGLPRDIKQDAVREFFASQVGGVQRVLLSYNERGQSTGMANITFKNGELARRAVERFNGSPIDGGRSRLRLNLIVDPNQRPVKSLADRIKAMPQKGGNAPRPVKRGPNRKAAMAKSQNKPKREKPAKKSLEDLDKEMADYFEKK
Put plainly: pull-down; in vitro competition assay: Yra1p-Pcf11p complex immobilised on GST sepharose beads, brief wash, Sgf73p added, released Pcf11p in the supernatant assessed by Western blotting.

No constants are given. Whether binding was seen depends on the method and setting. In cells and extracts the contact can be indirect. Some binding calls cover weakened binding; strength is not graded here. Where a sequence is shown, tags or fusion partners need not be part of it.

As for “Pcf11p (His-tagged, in vitro competition assay) (from UniProt P39081 1-626)”, the binding entry is on record as “binds”.
